Experimental data: the supplement of paper PMC12217912
The list shows a part of the results. The full chains were built here from the parent and the listed change. Inactive controls read about 0.05.

B1: TEV protease; numbered along this chain (parent)
chain: MGESLFKGPRDYNPISSSICHLTNESDGHTTSLYGIGFGPFIITNKHLFRRNNGTLVVQSLHGVFKVKDTTTLQQHLVDGRDMIIIRMPKDFPPFPQKLKFREPQREERICLVTTNFQTKSMSSMVSDTSCTFPSGDGIFWKHWIQTKDGQCGSPLVSTRDGFIVGIHSASNFTNTNNYFTSVPKNFMELLTNQEAQQWVSGWRLNADSVLWGGHKVFMVKPEEPFQPVKEATQL

Variants of: B1
Experiment: raw area under fraction-flipped curve 0-4 h after induction (AUC4h, not background-subtracted), DNA-recorder readout of cleavage of the substrate (dimensionless); higher = more cleavage of the substrate by the protease variant
Conditions: temperature: 34 °C; time window: 0-4 h after rhamnose induction
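Further: Bxb1 expression induced with 0.2% (w/v) L-rhamnose at OD600 near 0.5, cultures sampled hourly, flipped fraction per protease–substrate barcode pair counted by paired-end Illumina sequencing.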

| Variant | area with substrate EELYFQS | area with substrate EKLYFQS | area with substrate EDLYFQS | area with substrate EILYFQS | area with substrate ELLYFQS | area with substrate EQLYFQS | area with substrate ESLYFQS | area with substrate EVLYFQS | area with substrate EFLYFQS | area with substrate EGLYFQS |
| --- | --- | --- | --- | --- | --- | --- | --- | --- | --- | --- |
| M122G | 0.111 | 0.113 |  |  |  |  |  |  |  |  |
| T147C |  | 0.093 | 0.0934 | 0.0631 | 0.0519 | 0.113 | 0.0896 | 0.0729 |  |  |
| K66T | 0.17 | 0.123 | 0.139 |  |  | 0.116 |  | 0.112 | 0.102 | 0.12 |
| I145P |  |  | 0.0549 | 0.0517 |  |  |  |  |  |  |
| K221A |  | 0.111 | 0.103 | 0.086 | 0.0696 | 0.128 | 0.0916 |  |  |  |
| I86A | 0.0805 | 0.0713 | 0.0833 | 0.0451 |  | 0.0754 | 0.0697 | 0.0693 | 0.0723 | 0.0657 |
| R50F |  | 0.198 | 0.156 | 0.16 | 0.143 | 0.14 | 0.172 |  |  |  |
| V67H | 0.151 | 0.0761 | 0.121 | 0.0954 | 0.0937 | 0.119 | 0.0838 | 0.0996 |  |  |
| L77M | 0.0799 |  | 0.0782 | 0.0654 |  |  |  | 0.0674 |  |  |
| G35Q | 0.05 | 0.027 |  |  |  | 0.0495 | 0.0388 |  |  |  |
| P228D | 0.108 | 0.0907 |  |  | 0.101 |  | 0.115 | 0.117 | 0.106 |  |
| I84Q | 0.0732 |  |  | 0.0662 |  | 0.0957 | 0.0846 | 0.0665 |  |  |
| N186K | 0.114 | 0.0707 |  | 0.0956 |  | 0.127 | 0.103 | 0.108 |  |  |
| N186S | 0.103 | 0.112 | 0.17 | 0.0955 |  | 0.109 |  |  |  | 0.0984 |
| N186Q | 0.101 |  | 0.151 | 0.0939 | 0.0982 | 0.0757 | 0.143 | 0.105 | 0.103 |  |
| N172K | 0.0745 |  |  |  | 0.056 |  |  |  |  |  |
| P222R | 0.127 |  |  | 0.0601 |  | 0.0933 | 0.0874 | 0.0674 | 0.1 | 0.069 |
| G213N | 0.0758 |  |  | 0.11 | 0.0676 |  | 0.0713 |  |  |  |
| T159F | 0.14 | 0.0966 |  |  | 0.0739 |  | 0.0638 |  |  |  |
| H143M | 0.0607 | 0.0709 | 0.0842 |  | 0.0506 |  | 0.0664 |  |  |  |
| D128P |  |  | 0.119 | 0.0915 |  |  | 0.129 |  | 0.127 |  |
| N193E | 0.0942 | 0.102 | 0.0937 | 0.0819 | 0.0635 | 0.102 | 0.0874 |  |  | 0.0714 |

| Variant | area with substrate EELYFQS | area with substrate EKLYFQS | area with substrate EDLYFQS | area with substrate EILYFQS | area with substrate ELLYFQS | area with substrate EQLYFQS | area with substrate ESLYFQS | area with substrate EVLYFQS | area with substrate EFLYFQS | area with substrate EGLYFQS |
| --- | --- | --- | --- | --- | --- | --- | --- | --- | --- | --- |
| L211K | 0.101 | 0.0949 | 0.12 | 0.0996 |  | 0.082 |  |  |  | 0.101 |
| T129M | 0.119 | 0.0776 |  | 0.134 |  |  | 0.0852 | 0.0718 | 0.1 |  |
| G63C | 0.148 | 0.12 |  | 0.0982 | 0.0804 | 0.102 | 0.103 | 0.0998 | 0.133 | 0.0839 |
| G63K | 0.0811 | 0.0778 |  | 0.104 |  | 0.107 | 0.0757 | 0.0943 | 0.0879 |  |
| L5Y |  | 0.172 | 0.141 | 0.114 |  | 0.125 | 0.138 |  |  | 0.0908 |
| P93Q | 0.113 |  |  |  |  |  |  |  | 0.122 |  |
| K100A | 0.146 |  | 0.115 | 0.1 |  | 0.129 | 0.144 | 0.0805 |  |  |
| K100M | 0.131 |  | 0.164 | 0.137 |  | 0.109 | 0.0871 |  |  |  |
| A170M |  |  | 0.0603 | 0.0648 |  |  | 0.0559 |  |  |  |
| S182T |  |  | 0.129 |  |  | 0.117 | 0.119 | 0.0688 |  | 0.0952 |
| S182L |  | 0.0648 | 0.0656 |  |  |  | 0.0568 | 0.0538 |  | 0.0574 |
| Q151F |  |  | 0.103 |  |  |  | 0.0708 |  |  |  |
| N177K |  | 0.0765 | 0.174 |  | 0.0931 | 0.132 | 0.146 |  |  |  |
| E3I | 0.165 | 0.116 | 0.115 |  | 0.0885 |  | 0.141 | 0.123 |  |  |
| T71Y |  |  | 0.11 |  | 0.0594 | 0.121 |  | 0.0906 |  |  |
| T71I |  | 0.0979 | 0.123 | 0.0658 | 0.065 | 0.0939 | 0.0879 | 0.0907 |  | 0.0902 |
| T71D | 0.083 |  | 0.0964 |  | 0.0696 |  |  |  |  |  |
| P104E | 0.056 |  | 0.0425 | 0.0573 | 0.0576 |  | 0.0443 |  |  |  |
| C131R | 0.109 | 0.0956 |  | 0.0825 | 0.0944 |  | 0.086 | 0.119 |  | 0.0951 |
| F6K |  | 0.0805 | 0.115 |  |  |  | 0.0936 | 0.102 |  |  |
| E189R |  | 0.0976 | 0.0678 | 0.0984 | 0.0727 | 0.0882 | 0.0806 | 0.128 | 0.0837 |  |

Same assay, conditions: temperature: 34 °C; time window: 0-4 h after rhamnose induction

| Variant | area with substrate EMLYFQS | area with substrate ERLYFQS | area with substrate ETLYFQS | area with substrate EWLYFQS | area with substrate EPLYFQS | area with substrate EYLYFQS | area with substrate EHLYFQS |
| --- | --- | --- | --- | --- | --- | --- | --- |
| K66T | 0.103 | 0.126 | 0.108 |  |  |  |  |
| I145P |  |  |  | 0.062 |  |  |  |
| K221A |  |  |  | 0.117 |  |  |  |
| I86A | 0.0697 |  | 0.0785 | 0.0806 | 0.0854 | 0.0698 |  |
| R50F |  |  | 0.0052 |  | 0.149 | 0.149 | 0.155 |
| V67H |  |  | 0.0974 |  | 0.12 |  | 0.097 |
| L77M |  | 0.0778 |  |  | 0.0825 |  |  |
| G35Q |  |  | 0.0585 |  |  | 0.0551 |  |
| P228D | 0.0948 |  |  |  |  |  |  |
| N186K | 0.108 | 0.0621 |  |  |  |  | 0.0989 |
| N186S |  | 0.0996 |  | 0.0817 |  |  |  |
| N186Q |  |  |  |  | 0.141 |  |  |
| N172K |  | 0.0713 |  |  | 0.0467 |  |  |
| P222R | 0.0832 | 0.0825 |  |  |  | 0.105 |  |
| G213N | 0.0722 |  |  |  |  |  |  |
| T159F |  |  |  | 0.0953 |  |  |  |
| H143M |  | 0.0756 | 0.0771 | 0.0804 | 0.0672 | 0.0604 | 0.0743 |
| D128P |  | 0.12 |  | 0.106 |  |  |  |
| N193E | 0.093 | 0.095 |  | 0.0739 |  |  |  |
| L211K | 0.0994 |  |  | 0.0758 | 0.0973 |  |  |

| Variant | area with substrate EMLYFQS | area with substrate ERLYFQS | area with substrate ETLYFQS | area with substrate EWLYFQS | area with substrate EPLYFQS | area with substrate EYLYFQS | area with substrate EHLYFQS |
| --- | --- | --- | --- | --- | --- | --- | --- |
| G63C | 0.109 | 0.0875 | 0.0896 |  | 0.0928 | 0.0977 | 0.119 |
| G63K |  | 0.121 |  | 0.092 |  |  | 0.117 |
| L5Y | 0.141 | 0.11 |  | 0.0951 |  | 0.107 |  |
| P93Q | 0.162 | 0.121 |  |  |  |  | 0.105 |
| K100A | 0.128 | 0.106 |  |  |  |  |  |
| K100M |  | 0.0944 |  |  |  | 0.11 |  |
| A170M |  |  |  |  | 0.0662 |  | 0.0189 |
| S182T | 0.108 |  |  | 0.0708 |  | 0.109 | 0.102 |
| S182L | 0.0473 | 0.0622 |  |  |  |  | 0.0691 |
| Q151F | 0.0806 |  |  |  |  |  |  |
| N177K |  |  |  | 0.134 |  |  |  |
| E3I | 0.146 |  | 0.141 |  | 0.159 |  | 0.144 |
| T71Y | 0.0791 | 0.0876 |  |  | 0.0903 |  | 0.0702 |
| T71I |  | 0.0931 |  |  |  | 0.0989 |  |
| T71D |  |  |  | 0.0717 |  |  |  |
| P104E | 0.0378 |  |  |  | 0.0249 |  | 0.049 |
| C131R | 0.098 |  |  |  | 0.107 | 0.0733 | 0.1 |
| F6K |  | 0.0909 |  |  |  |  |  |
| E189R | 0.1 |  |  | 0.0911 |  |  | 0.109 |
